The whole screen tested about 150,000 compounds, of which about 540 (0.36%) showed an effect of 50% or more. The list shows a part of the results.
system: Plasmodium falciparum; assay: Primary screen in NF54 nanoGlo assay, in single point, at 2uM, 72h; a lower Z score goes with more inhibition; format: functional, Erythrocyte; conditions: timepoint 72 hour

| Structure (SMILES) | % Inhibition [%] | Z score |
| --- | --- | --- |
| COc1cccc(NCc2cc(Nc3ccccc3)c3c4c(onc24)-c2ccccc2C3=O)c1OC | -2 | 0.3 |
| O=C(N[C@H](CO)C1CCCCC1)[C@@H]1CCCN1C1CCNCC1 | -7 | 1.16 |
| CCOc1ccc2nc(CN3CC(O)C(Cc4cc(C)no4)C3)ccc2c1 (stereo unspecified) | -11 | 1.89 |
| O=C(NCC1CCN(Cc2ccc(-c3cccnc3)cc2)CC1)c1ccnnc1 | 6 | -1.08 |
| Cn1nc(C2CC2)nc1CNc1cccc(Oc2ccc(Br)cc2)c1 | 3 | -0.61 |
| CCn1ccnc(N2CCC(NC(=O)c3cc4cc(F)ccc4[nH]3)CC2)c1=O | -7 | 1.35 |
| Cc1nc(N2CCCC2)nc(N[C@H]2CCCNC2)c1C | 9 | -1.58 |
| CC1(C)CC(NC(=O)N2CCC[C@H](N3CCCC3)CC2)CC(C)(C)N1 | -2 | 0.41 |
| Oc1cc(CN2CCN([C@H]3CCNC3)CC2)nc2ccc(F)cc12 | -16 | 2.75 |
| Cc1cc(N2CCC(N(C)Cc3cc(-c4ccccc4)n[nH]3)CC2)nc(N)n1 | 41 | -8.91 |
| C[C@@]1(C2CCN(S(=O)(=O)c3ccco3)CC2)NC(=O)NC1=O | -6 | 1.22 |
| Cc1noc(-c2ccnc(N(C)CC3CCN(Cc4ccccc4)CC3)c2)n1 | -6 | 1.1 |
| C[C@@H](CNc1cc(-n2cccn2)nc(N)n1)CN1CCCC1 | 2 | -0.36 |
| CCN(CC)Cc1cccc(CNc2ncnc3ccc(F)cc23)c1 | -1 | 0.18 |
| CC1(C)CC(Nc2ccc(S(=O)(=O)C(F)(F)F)cc2)CC(C)(C)N1 | -1 | 0.13 |
| O=C(NCCN1CCC(N2CCCCC2)CC1)c1cn2c(n1)C(=O)N(CC1CC1)CC2 | -6 | 1.09 |
| c1ccc(CN(C[C@H]2CCCO2)c2cc(C3CCNCC3)ncn2)nc1 | -5 | 0.94 |
| C[C@](O)(CNCc1cc(O)c2ccccc2n1)C(F)F | -1 | 0.25 |
| Cc1nccn1Cc1cccc(CNc2nn3cc(-c4ccccc4)nc3s2)c1 | 7 | -1.04 |
| CN1CCN(C[C@@H](O)CN(C)c2ncnc3[nH]ccc23)CC1 | -1 | 0.15 |
| CC(C)N1C[C@@H](CN(C)Cc2ccccn2)CCC1=O | 0 | -0.03 |
| CCN1C(=O)CC[C@H](CNc2ncnc3[nH]ccc23)[C@H]1c1cnn(C)c1 | -5 | 0.72 |
| O=S(=O)(NC1CCN(c2ncnc3[nH]ccc23)CC1)c1ccc(F)cc1 | 2 | -0.4 |
| CN1C(=O)N(C)C2(CCN([C@H]3CCN(c4ccccc4)C3)CC2)C1=O | -4 | 0.73 |
| CCN1CCC(N2CCN(c3ccc4cccc(Cl)c4n3)CC2)CC1 | 4 | -0.84 |
| CN(C)c1ccnc(N2CCN(c3cc(N4CCOCC4)ncn3)CC2)n1 | -8 | 1.44 |
| CCc1ncnc(N[C@H]2CCN(C3CCN(C)CC3)C2)c1F | -4 | 0.6 |

| Structure (SMILES) | % Inhibition [%] | Z score |
| --- | --- | --- |
| CN(CCc1nc2cc(Cl)ccc2[nH]1)CC[C@H]1CCCN1C | 9 | -1.78 |
| Cc1ccc(N2CCC(NC(=O)c3cc4sccc4[nH]3)CC2)nc1 | 9 | -1.61 |
| O[C@H]1CC[C@H](n2cnc(-c3ccccc3)c2-c2cccc3nonc23)CC1 | 1 | -0.2 |
| CN(C)c1ncnc2c1CCN(C(=O)[C@@H]1CCC(=O)NC(=O)N1)C2 | -3 | 0.54 |
| Cc1cc(C)n(C(C)CC(=O)N2CCOC(c3ncon3)C2)n1 (stereo unspecified) | -14 | 2.1 |
| Cc1ccc2nc(CNCCS(C)(=O)=O)cc(O)c2c1 | -11 | 1.98 |
| CN(C)C(CNc1ncc(Cl)c(NCC(c2ccco2)N(C)C)n1)c1ccco1 (stereo unspecified) | -5 | 1 |
| Cc1cnc(Nc2nc3ccc(OC(F)(F)F)cc3s2)s1 | 0 | 0.1 |
| CN1CCN(C(=O)c2cncc(N3CCN(CCOc4ccccc4)CC3)n2)CC1 | -11 | 1.85 |
| c1cc(CNc2ncnc3sccc23)cc(OC2CCC2)n1 | -1 | 0.24 |
| CC[C@](O)(CCCO)CNC(=O)c1cccc(-c2ccc3[nH]ccc3c2)c1 | -7 | 1.12 |
| CCC(C(=O)Nc1cc(C)on1)N(C1CCc2nnc(C)n2C1)C(CC)C(=O)Nc1cc(C)on1 (stereo unspecified) | -16 | 2.84 |
| Cc1cc(C)c2c(CC(=O)N3CCC[C@@]4(CCOC4)C3)coc2c1C | 1 | -0.18 |
| Cc1nnc(-c2cccc(-c3cnn(CCN4CCOCC4)c3)c2)s1 | -13 | 1.98 |
| COc1ccc2ccc(OCc3nc(C(=O)N(C)Cc4cc(C)no4)co3)cc2c1 | -6 | 1.1 |
| C[C@H]1CCCCN1CCN(C)c1cc(N)nc(N2CCOCC2)n1 | 6 | -0.99 |
| Cc1ccc(N2CCC[C@H](Nc3ncnc4[nH]ccc34)C2)nn1 | 5 | -0.9 |
| CC1(C)COCN1C(=O)c1ccc(-n2cncn2)nn1 | -11 | 1.97 |
| COCCN1CCC[C@@]2(CCN(c3ccnc4cc(Cl)ccc34)C2)C1 | 99 | -17.32 |
| O=C(c1cc2n(n1)CC1(CCNCC1)OC2)N1CCC([C@H]2CCCNC2)CC1 | 1 | -0.16 |
| CNc1cc(-c2cccc(C(=O)N(C)CCCN(C)C)c2)nc(N)n1 | -5 | 0.94 |
| COc1ccc(-c2nnc(C)o2)cc1NC(=O)c1cc(-c2ccccc2)[nH]n1 | 0 | 0 |
| Brc1cnc(C2CCOCC2)nc1 | -7 | 1.31 |
| C1CC2(C1)C(NC1CCN(CCN3CCOCC3)CC1)C1CCOC12 (stereo unspecified) | -7 | 1.57 |
| CC1CCCN(CCNC(=O)C2CCCN(C(=O)c3ccc4[nH]ncc4c3)C2)C1 (stereo unspecified) | -1 | 0.16 |
| CCNc1ccc(-c2ccc3c(c2)CCN3)cn1 | -8 | 1.81 |

From ChEMBL document CHEMBL5308541, “MAIP: An Open-Source Tool to Enrich High-Throughput Screening Output and Identify Novel, Druglike Molecules with Antimalarial Activity” (ACS Med Chem Lett, 2023)
